According to the supplement of paper PMC3656093:
± gives the standard deviation of the averaged measurements. Over roughly 1,900 compounds, “CD40L-induced NF-kB luciferase activity, plate-corrected, relative to DMSO (0) and IKK inhibitor VII (-100) controls” has its median near 0.032; the lowest 2% begin near -26. The list shows a part of the results.

test system: BL2-NFkB-Luc; experiment: CD40L-induced NF-kB luciferase activity, plate-corrected, relative to DMSO (0) and IKK inhibitor VII (-100) controls (% normalized activity); higher = more NF-kB reporter activity (less inhibition); conditions: 9.4 µM; stimulus: tCD40L 64 ng/ml; 4.5 h
Protocol: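 BL2 B cells with a stable NF-kB response-element luciferase reporter (BL2-NFkB-Luc), 384-well. Cells were pre-incubated with compound at 9.4 uM for 1 h at 37 C, then stimulated with 64 ng/ml trimerized CD40L for 4.5 h; luciferase was read with Steady-Glo. Signal was normalised per plate in Genedata (median DMSO neutral control = 0, median IKK inhibitor VII at 50 uM = -100) with Assay Median plate-pattern correction; duplicate plates.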

Structure (SMILES)	CD40L-induced NF-kB luciferase activity
NCC(O)c1ccc(O)cc1 (configuration not stated)	1.15 ± 1.4
S=C1NCCN1	3.68 ± 0.28
CC(Cc1ccccc1)NCC(=O)Nc1cc(N(C)C)nc2ccccc12 (configuration not stated)	2.09 ± 1.1
Cc1ccsc1C(=O)C1CCCN(Cc2cc3ccccc3o2)C1 (configuration not stated)	2.94 ± 3.7
Cc1ccc(-n2c(C)cc(/C=C3/C(=O)NC(=O)N(C)C3=O)c2C)cc1	-5.17 ± 2.5
C[C@]12CC[C@@H](O)C[C@@H]1CC[C@@H]1[C@@H]2CC[C@]2(C)[C@@H](O)CC[C@@H]12	-7.7 ± 8.6
OC1CCCCC1N1CCC(c2ccccc2)CC1 (configuration not stated)	-5.95 ± 3.6
COc1ccc2c(c1)CC1(CN2C)C(=O)NC(=O)N(CCc2ccccc2)C1=O (configuration not stated)	-0.818 ± 1.4
CC(=O)OC1C2CCC1C(N1CCCC1)CC2 (configuration not stated)	-2.77 ± 0.79
CC12CCC3C(CC=C4CC(O)CCC43C)C1C/C(=C\c1cccc(F)c1)C2=O (configuration not stated)	-5.06 ± 1.9
CC12CC[C@H]3[C@@H](CCC4(O)C[C@H](O)CCC34C=NNC(=O)Cc3ccccc3)C1(O)CCC2C1=CC(=O)OC1 (some centres not stated)	-1.26 ± 0.48
CC12CN3CC(C)(CN(C1)C31CCOCC1)C2=O	-5.49 ± 5.5
C[C@]12CC[C@@H](O)C[C@@H]1CC[C@@H]1[C@@H]2CC[C@]2(C)C(=O)CC[C@@H]12	1.29 ± 3.4
CC[C@]12C=CCN3CCC4(c5cc(Br)c(OC)cc5N(C)C4[C@@](O)(C(=O)OC)[C@@H]1OC(C)=O)C32 (some centres not stated)	0.234 ± 7.5
CC(C)[N+](C)(CCC(C(N)=O)(c1ccccc1)c1ccccc1)C(C)C	3.26 ± 2.9
C#C[C@]1(O)CC[C@H]2[C@@H]3CCC4=CC(=O)CC[C@]4(C)[C@H]3CC[C@@]21C	-8.34 ± 4.1
O=c1[nH]c2ccccc2n1CCCN1CCC(n2c(=O)[nH]c3cc(Cl)ccc32)CC1	-5.01 ± 5.7
C[C@@H]1O[C@@H](O[C@H]2C[C@@H](O)[C@]3(CO)[C@H]4[C@H](O)C[C@]5(C)[C@@H](C6COC(=O)C6)CC[C@]5(O)[C@@H]4CC[C@]3(O)C2)[C@H](O)[C@H](O)[C@H]1O (some centres not stated)	2.54 ± 3.8
O=C1CCCC2=C1C(c1cccnc1)Nc1ccccc1N2 (configuration not stated)	-1.61 ± 2.8
C#CCN(C)C(C)Cc1ccccc1 (configuration not stated)	0.792 ± 0.45
C[N+]1(C)CCOC(O)(c2ccc(-c3ccc(C4(O)C[N+](C)(C)CCO4)cc3)cc2)C1 (configuration not stated)	-3.22 ± 3.6
Nc1ccncc1	2.39 ± 3.6

Structure (SMILES)	CD40L-induced NF-kB luciferase activity
C[C@]12CCC(=O)C=C1CC[C@@H]1[C@@H]2C(=O)C[C@]2(C)C(=O)CC[C@@H]12	-0.221 ± 7.7
COc1ccc(C(=O)N2CCCC2=O)cc1	-3.54 ± 2.8
O=C(O)CCCc1ccc(N(CCCl)CCCl)cc1	0.841 ± 1.6
CC(C)[C@@]1(NC(=O)[C@@H]2C[C@@H]3c4cccc5[nH]cc(c45)C[C@H]3N(C)C2)O[C@@]2(O)[C@@H]3CCCN3C(=O)[C@H](Cc3ccccc3)N2C1=O	0.32 ± 1.1
COc1ccc(OCC(=O)N2c3ccc(C)cc3C3CN(C)CCC32)cc1 (configuration not stated)	0.261 ± 0.6
CCOc1ccc(C2C(C#N)=C(N)Oc3c2c(=O)oc2ccccc32)cc1 (configuration not stated)	0.103 ± 1.5
CC(C)CC12CN3CCN(CC(C3)C1O)C2 (configuration not stated)	0.868 ± 7.8
CC12CCC3C(CC=C4CC5(CCC43C)OCCO5)C1CCC2=O (configuration not stated)	4.19 ± 4.8
CCCC[N+]1(C)[C@@H]2CC(OC(=O)[C@H](CO)c3ccccc3)C[C@H]1[C@@H]1O[C@@H]12 (some centres not stated)	-0.479 ± 2.2
CC(CCc1ccccc1)NC(C)C(O)c1ccc(O)cc1 (configuration not stated)	2.16 ± 8.5
CC(C)C[C@H](NC(=O)[C@@H]1CCCN1C(=O)[C@@H](N)Cc1ccc(O)cc1)C(=O)NCC(N)=O	-28.7 ± 4.1
C[C@H](O)[C@H]1CC[C@H]2[C@@H]3CCC4=CC(=O)CC[C@]4(C)[C@H]3CC[C@]12C	5.24 ± 2.7
O=C1CN=C(c2ccccc2F)c2cc(Cl)ccc2N1	-0.0643 ± 0.96
C[N+](C)(C)CCCCCCCCCC[N+](C)(C)C	-4.54 ± 9.3
Cc1cc(Cl)ccc1OCC(=O)O	-0.759 ± 6.9
CCCN1C[C@H](CSC)C[C@@H]2c3cccc4[nH]cc(c34)C[C@H]21	-2.59 ± 7.8
CN1C(=O)N(C)C(=O)C2(Cc3ccccc3N3CCOCC32)C1=O (configuration not stated)	4.38 ± 0.45
NNC(=O)c1ccc(Cl)cc1	7.99 ± 1.9
COc1cc2c3cc1Oc1cc(ccc1O)C[C@@H]1c4c(cc(OC)c(O)c4Oc4ccc(cc4)C[C@H]3N(C)CC2)CCN1C	0.462 ± 2.1
CCNC(=S)N(C)CCc1cc2c(c(OC)c1C=C1C(=O)N(C)C(=O)N(C)C1=O)OCO2	6.09 ± 0.4
COP(=S)(OC)SCN1C(=O)c2ccccc2C1=O	-0.0255 ± 0.76
COc1ccc(CCN2CCC(Nc3nc4ccccc4n3Cc3ccc(F)cc3)CC2)cc1	-4.18 ± 3.9

Structure (SMILES)	CD40L-induced NF-kB luciferase activity
C[C@H]1CCC[C@H](O)CCCCCc2cc(O)cc(O)c2C(=O)O1	-16.2 ± 1.5
COC1=CC(=O)OC(/C=C/c2ccccc2)C1 (configuration not stated)	1.92 ± 3.3
Clc1ccc(C2NCCc3[nH]cnc32)cc1 (configuration not stated)	2.35 ± 1.1
CC12CN3CC(C)(CN(C1)C3c1cccs1)C2O (configuration not stated)	-2.02 ± 2.9
COc1ccc(Cc2nccc3cc(OC)c(OC)cc23)cc1OC	-24.6 ± 1.4
CC1CCC[C@H](O)CCCCCc2cc(O)cc(O)c2C(=O)O1 (some centres not stated)	-5.81 ± 1.4
CN1C2CCC1CC(OC(=O)c1ccc(Cl)cc1)C2 (configuration not stated)	-2.24 ± 2.5
CC(C)(C)NCC(O)c1cc(Cl)c(N)c(Cl)c1 (configuration not stated)	-3.51 ± 17
CCOC(=O)c1cc2c(cn1)[nH]c1ccccc12	38.8 ± 20
NCCc1ccc(O)cc1	6.48 ± 5.3
CN1[C@@H]2CC[C@H]1CC(OC(=O)C(CO)c1ccccc1)C2 (some centres not stated)	-0.533 ± 0.51
C[N+]1(C)CCN(c2ccccc2)CC1	-7.2 ± 2.2
COc1ccc2c3c([nH]c2c1)C(C)=NCC3	-0.0193 ± 0.26
C[C@@H]1O[C@@H](O[C@H]2C[C@@H](O)[C@]3(CO)[C@H]4[C@H](O)C[C@]5(C)[C@@H](C6=CC(=O)OC6)CC[C@]5(O)[C@@H]4CC[C@]3(O)C2)[C@H](O)[C@H](O)[C@H]1O	-78.94 ± 0.33
O=S(=O)(c1ccc(F)cc1)N1CCCCC1c1cccnc1 (configuration not stated)	-2.98 ± 5.6
CC(=O)C1=C(C)OC(N)=C(C(=O)OC(C)C)C12C(=O)Nc1ccccc12 (configuration not stated)	-8.11 ± 3.9
Fc1ccc(C(OCCN2CCCC2)c2ccc(Br)cc2)cc1 (configuration not stated)	3.13 ± 0.33
CC(C)NC(C)C(=O)c1ccc2ccccc2c1 (configuration not stated)	6.46 ± 0.37
CCN1CC2(COC(=O)c3ccccc3N)CCC(OC)C34C5CC6C(OC)CC(O)(C5C6OC)C(O)(C(OC)C23)C14 (configuration not stated)	-1.04 ± 0.25
COc1ccc(OC)c([C@@H](O)[C@H](C)NC(C)(C)C)c1	-6.62 ± 15
NC(=O)CN1CCCC1=O	-2.55 ± 1.3
Cc1cc(OCc2cc(C(=O)O)oc2C)c2c3c(c(=O)oc2c1)CCCC3	2.41 ± 3.2

Structure (SMILES)	CD40L-induced NF-kB luciferase activity
O=C1NC(=O)C2(Cc3ccccc3N3CCCC32)C(=O)N1c1ccc(Cl)cc1 (configuration not stated)	8.57 ± 3.4
Cc1nc2ccccc2c(=O)n1-c1ccc(C(=O)O)cc1	4.46 ± 4.7
Cc1c2ccncc2c(C)c2c1[nH]c1ccccc12	175 ± 18
COc1cc(/C=C2\C(=O)NC(=O)N(c3ccccc3)C2=O)c([N+](=O)[O-])cc1OC	2.06 ± 2.5
C[N+]1(C)[C@@H]2CC[C@H]1CC(OC(=O)C(CO)c1ccccc1)C2 (some centres not stated)	3.62 ± 3.9
CCOC(=O)C1=C(C)OC(N)=C(C(=O)OCC)[C@@]12C(=O)N(CC(N)=O)c1ccccc12	9.35 ± 2.2
CC/C(=C\C=C\[C@@H]1C=C[C@@H]2CCC[C@H]2[C@@H]1C(=O)c1ccc[nH]1)[C@@H]1O[C@@H]([C@@H](C)C(=O)O)CC[C@@H]1C	-2.16 ± 7.7
CN1CCN(C(=O)OC2c3nccnc3C(=O)N2c2ccc(Cl)cn2)CC1 (configuration not stated)	-0.535 ± 0.21
CCNC(=O)[C@H]1O[C@@H](n2cnc3c(N)ncnc32)[C@H](O)[C@@H]1O	-4.01 ± 3.1
CCn1ccnc1CN1CCCC(C(=O)c2cc(F)ccc2OC)C1 (configuration not stated)	-4.36 ± 8.7
Cc1cccc(C)c1NC1=NCCCS1	-0.549 ± 5.8
CN(C)[C@@H]1C(=O)C(C(N)=O)C(=O)[C@@]2(O)C(=O)C3C(=O)c4c(O)cccc4[C@@](C)(O)[C@H]3[C@H](O)[C@@H]12 (some centres not stated)	0.102 ± 0.97
COc1cc([C@@H]2c3cc4c(cc3[C@H](O)[C@H]3COC(=O)[C@H]23)OCO4)cc(OC)c1OC	-50.7 ± 3
CN1CC[C@@]23CCCC[C@@H]2[C@@H]1Cc1ccc(O)cc13	2.11 ± 3.6
CC[C@H]1CN2CCc3cc(OC)c(OC)cc3[C@@H]2C[C@@H]1C[C@H]1NCCc2cc(OC)c(OC)cc21	-93.93 ± 0.21
C[N+](C)(C)Cc1ccccc1	-5.43 ± 0.3
CCC(COC(=O)c1cc(OC)c(OC)c(OC)c1)(c1ccccc1)N(C)C (configuration not stated)	-3.99 ± 2.7
C[N+]12CCC(CC1)C(OC(=O)C(O)(c1ccccc1)c1ccccc1)C2 (configuration not stated)	-2.63 ± 1.2
O=C1C(=O)c2ccccc2-c2ccccc21	-94.61 ± 0.41
CN1C2CCC1CC(OC(=O)CCN1CCCC1)C2 (configuration not stated)	-3.67 ± 0.86
CCOC(=O)C(C)Oc1cc(C)cc2oc(=O)c3c(c12)CCCC3 (configuration not stated)	-5.6 ± 4.1
